Source: article PMC8713996, “An anti-tuberculosis compound screen using a zebrafish infection model identifies an aspartyl-tRNA synthetase inhibitor” (Disease Models & Mechanisms, 2021)

Tested on: S. pneumoniae
Settings: Table S1; strain used for zebrafish infection (D39V)

penicillin was tested, and the “MIC90 S. pneumoniae” value was 0.04 µM.
